PubChem BioAssay (NCI)
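Cultured in 96-well plates, cells were exposed to test compound for 48 hours across five concentrations. GI50: concentration for 50% inhibition of growth.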 Not every entry of the source has a single result; some have several. The other results are left out here. The source may hold further records. For some assays here: Records of one sample usually come from different ranges of test concentrations, which the source does not state; some values may only mark the edge of a range.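 TGI denotes the concentration required for complete inhibition of growth.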 For some assays here: The records of an entry are repeats (runs, samples, wells, individuals or studies). Brackets tell where a record comes from. Letters hold for one entry only.

What was measured:
Experiment in all cases: NCI-60 cell line screen, 48 h
[1] = system: T-47D breast
[2] = system: SK-MEL-2 melanoma
[3] = system: U251 CNS
[4] = system: M14 melanoma
[5] = system: MOLT-4 leukemia
[6] = system: OVCAR-8 ovarian
[7] = system: KM12 colon
[8] = system: CCRF-CEM leukemia
[9] = system: SN12C renal
[10] = system: NCI-H460 lung
[11] = system: SNB-19 CNS
[12] = system: K-562 leukemia
[13] = system: SK-OV-3 ovarian
[14] = system: SF-539 CNS
[15] = system: BT-549 breast
[16] = system: SF-268 CNS
[17] = system: HL-60(TB) leukemia
[18] = system: NCI-H23 lung
[19] = system: HT29 colon
[20] = system: UACC-257 melanoma
[21] = system: EKVX NSCLC
[22] = system: HCT-116 colon
[23] = system: SK-MEL-28 melanoma
[24] = system: HOP-62 NSCLC
[25] = system: RPMI-8226 leukemia
[26] = system: OVCAR-4 ovarian
[27] = system: LOX IMVI melanoma
[28] = system: NCI-H226 lung
[29] = system: MCF7 breast
[30] = system: OVCAR-5 ovarian
[31] = system: UACC-62 melanoma
[32] = system: NCI-H522 lung
[33] = system: CAKI-1 renal
[34] = system: IGROV1 ovarian

With `CC(C)NC[C@@H](C(=O)N1CCN(c2ncnc3c2[C@H](C)C[C@H]3O)CC1)c1ccc(Cl)cc1` the TGI [1] was 1.09 µM [sample A, 1 test] and > 100 µM [sample B, mean of 2 tests].
With `COc1cc(C2c3cc4c(cc3[C@@H](Nc3ccc(C#N)cc3)C3COC(=O)[C@H]23)OCO4)cc(OC)c1O` (some centres undefined) the TGI [2] was 48.1 µM, 3.64 µM, 21.4 µM, the TGI [3] was 13.5 µM, 75 µM, 6.12 µM and the TGI [4] was 9.51 µM and > 100 µM. For the same compound, the TGI [5] was 50 µM and 278 nM, the TGI [6] was 5.62 µM, 75 µM, 4.13 µM and the TGI [7] was 50 µM, 2.67 µM, 4.37 µM. The TGI [1] was 5.26 µM and > 100 µM, the TGI [8] was 50 µM and 1.28 µM and the TGI [9] was 3.72 µM, 75 µM, > 100 µM. For the same compound, the TGI [10] was 2.04 µM, 1.68 µM, > 100 µM, the TGI [11] was 24 µM, 7.03 µM, > 100 µM and the TGI [12] was 12.6 µM, 6.36 µM, > 100 µM.
In the case of `C=C1C(O)C2(O)OCC34C(CC5C(C)=CC(=O)C(O)C5(C)C23)OC(=O)C(OC(=O)C/C=C(\C)CCCCC)C14` (centres undefined), the GI50 [13] is reported as < 1 nM and 37.1 nM, the TGI [13] is reported as 30.3 nM, > 100 µM, 31 nM and the TGI [14] is reported as < 1 nM and 22.8 nM. The TGI [15] was 1.77 nM and 21.9 nM, the TGI [3] was < 1 nM and 18.7 nM and the TGI [5] was 6.23 nM and 619 nM. The TGI [16] was 1.4 nM, 42 nM, 56.1 nM, the TGI [17] was < 1 nM and 86.2 nM and the TGI [18] was 1.88 nM and 147 nM. For the same compound, the TGI [19] was < 1 nM and 269 nM, the TGI [20] was 6.07 nM, 11.5 nM, 62.9 nM and the TGI [21] was 92.8 nM, 342 nM, 21.1 nM. For the same compound, the TGI [22] was < 1 nM and 53.4 nM, the TGI [23] was 1.33 nM and 19.9 nM and the TGI [8] was < 1 nM and 112 nM. For the same compound, the TGI [24] was 1.67 nM and 20.9 nM, the TGI [25] was < 1 nM and 19.1 nM and the TGI [26] was 1.23 nM and 59.2 nM. The GI50 [27] was < 1 nM [1 test] and 24 nM [mean of 3 tests], the TGI [27] was < 1 nM [1 test] and 269 nM [mean of 3 tests] and the TGI [9] was 11.8 nM, 91.5 nM, 155 nM. The TGI [10] was < 1 nM and 15 nM, the TGI [28] was < 1 nM, 10.8 nM, 20.6 nM and the TGI [11] was < 1 nM and 19.6 nM. For the same compound, the TGI [29] was < 1 nM and 16.3 nM, the TGI [30] was 11.4 nM, 19 nM, 370 nM and the TGI [31] was 1.24 nM and 20.8 nM. The TGI [32] was < 1 nM and 16.9 nM, the TGI [33] was 254 nM, 3.74 µM, 160 nM and the TGI [34] was < 1 nM and 19.4 nM. The TGI [12] was < 1 nM and 192 nM.
